In all, about 420,000 compounds went through this assay and about 64,000 (15%) were called active. The shares of active, inactive and inconclusive entries below differ from those in the screen. The call rests on the fitted dose curve; in most records, active means well fitted inhibition curve with a large enough effect; inconclusive means small, poorly fitted or top-dose-only effect; inactive means flat fitted curve, though single readings scatter. No potency is given beside an inconclusive call; the fits are too rough.
Test: qHTS for Inhibitors of human tyrosyl-DNA phosphodiesterase 1 (TDP1): qHTS in cells in absence of CPT; further: nearly all actives have a fitted effect of over 55% in size
Settings: DT40 Tdp1-/- hTDP1 cells, no CPT, ATP luminescence, 48 h; activity change, negative = growth inhibition: at 46.2 µM (top of the series) unless noted
In short: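 A cellular qHTS used chicken DT40 cells lacking endogenous Tdp1 but carrying stably transfected human TDP1. Compounds were applied without camptothecin, and cell growth kinetics were judged by ATP-dependent luminescence after ≥48 hr.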
On the % scale 0 is the no-effect control and ±100 the full control effect; potency means the concentration at half of the fitted maximal effect; tags describe the fitted curve by direction and shape.

Q: With `CC(=O)Nc1c2c(nn1-c1ccc(C)cc1C)CS(=O)C2` (stereo not given) as the compound, how does the Potency read?
A: inactive

Q: With `COc1ccc(C(=O)Nc2ccccc2N2CCN(C(=O)C(C)C)CC2)cc1Cl` as the compound, how does the Potency read?
A: inconclusive [inhibitor, partial curve]

Q: Which Potency does the source give for `COc1cc(C(=O)NC(=S)Nc2ccc(N3CCCC3)cc2)cc(OC)c1OC` here?
A: inactive

Q: With `CCOc1ccc(S(=O)(=O)Nc2cccc(-c3ccc(N4CCCCCC4)nn3)c2)cc1` as the compound, how does the Potency read?
A: inconclusive [inhibitor, single point]

Q: For `O=c1c2cccnc2n(Cc2ccccc2F)c(=O)n1Cc1ccc(F)cc1`, which Potency is on record?
A: inconclusive [inhibitor, partial curve, poor fit]

Q: With `O=C1c2ccccc2C(=O)N1CCc1csc(NNc2nc(CCN3C(=O)c4ccccc4C3=O)cs2)n1` as the compound, how does the activity change, negative = growth inhibition read?
A: inconclusive: -35.1% [inhibitor]

Q: With `O=C(Nc1cccc(NC(=O)c2cccs2)c1)c1ccc(Br)cc1` as the compound, how does the Potency read?
A: inconclusive [inhibitor, single point]

Q: Which Potency does the source give for `CC(C)(C)c1ccc(S(=O)(=O)Nc2cccnc2)cc1` here?
A: inconclusive [inhibitor, single point]

Q: Which Potency does the source give for `Cc1ccc(-n2ncc3c2CCCC3NC(=O)CCCN2CCCCC2=O)cc1C` (stereo not given) here?
A: inconclusive [inhibitor, partial curve]

Q: Which Potency does the source give for `CCC(=O)OC1C2CC3=C4CC(=O)OC(c5ccoc5)[C@]4(C)CCC3[C@@](C)(C2=O)C(CC(=O)OC)C1(C)C` (stereo not given in full) here?
A: inactive

Q: Which Potency does the source give for `C[C@]12CCC(=O)C=C1CC[C@@H]1[C@@H]2[C@@H](O)C[C@@]2(C)[C@H]1CC[C@]2(O)C(=O)CO` here?
A: inconclusive [inhibitor, full curve, poor fit]

Q: And the activity change, negative = growth inhibition?
A: inconclusive: -19.6% [inhibitor]

Q: Which Potency does the source give for `c1ccc2c(c1)ccn2-n1ccc2ccccc21` here?
A: active: 12.6 µM

Q: Which Potency does the source give for `CCCCN1C(=O)c2[nH]nc(-c3ccccc3O)c2C1c1cc(Br)c(O)c(OC)c1` (stereo not given) here?
A: inconclusive [inhibitor, single point]

Q: Which Potency does the source give for `CC(C(=O)Nc1nc(-c2ccc(F)cc2)cs1)N1C(=O)C2CC=CCC2C1=O` (stereo not given) here?
A: inactive

Q: For `Cc1ccc(C(=O)N[C@H](C(=O)N2CCN(c3ncccn3)CC2)C(C)C)cc1`, which Potency is on record?
A: inconclusive [inhibitor, single point]

Q: With `Cc1ccc(OCc2ccc(C(=O)NCC3CCCO3)cc2)cc1` (stereo not given) as the compound, how does the Potency read?
A: inconclusive [inhibitor, single point]

Q: For `COc1ccc(NC(=O)Cn2c3ncccc3c(=O)n2-c2ccc(C)c(C)c2)c(OC)c1`, which Potency is on record?
A: inactive

Q: Which Potency does the source give for `CCn1ccc(C(=O)Nc2ncc(C)s2)n1` here?
A: inactive

Q: With `COc1ccc(C)cc1NC(=O)Nc1ccc2c(c1)CCC2` as the compound, how does the Potency read?
A: inconclusive [inhibitor, single point]

Q: For `CCn1nc(C)c(NC(=O)CC23CC4CC(CC(C4)C2)C3)c1C`, which Potency is on record?
A: active: 20.6 µM

Q: With `CCOC(=O)C1CCCN(C(=O)C2CCCN(S(C)(=O)=O)C2)C1` (stereo not given) as the compound, how does the Potency read?
A: inactive

Q: For `COC(=O)CCC(=O)Nc1cc(OC)c(OC)cc1Cc1nccc2cc(OC)c(OC)cc12`, which Potency is on record?
A: inactive

Q: With `Cc1cccc(S(=O)(=O)Nc2ccc3c(c2)OCCO3)c1` as the compound, how does the Potency read?
A: inconclusive [inhibitor, partial curve]

Q: Which Potency does the source give for `COc1ccc2oc(C(=O)OC/C(O)=C(\C#N)c3nc4ccccc4[nH]3)c(C)c2c1` here?
A: inactive

Q: With `O=C(Nc1nc(-c2ccc(Cl)s2)cs1)c1ccccc1` as the compound, how does the Potency read?
A: inconclusive [inhibitor, single point]

Q: With `COc1ccc(-n2cccc2/C=C2/NC(=O)N(c3cccc(Cl)c3)C2=O)cc1` as the compound, how does the Potency read?
A: inactive

Q: For `Oc1ccc(/C=C/c2ccc3cccc(O)c3n2)cc1Br`, which Potency is on record?
A: inconclusive [inhibitor, single point]

Q: Which Potency does the source give for `CCCCc1nn2c(=O)cc(COC(=O)c3ccc(NC(=O)c4ccccc4Cl)cc3)nc2s1` here?
A: inactive

Q: Which Potency does the source give for `CN(/N=C/c1cccnc1)c1cnn(-c2ccc(F)c(Cl)c2)c(=O)c1Cl` here?
A: inactive

Q: Which Potency does the source give for `CN1CCc2c(sc3c2c(=O)n(-c2ccccc2)c2nnc(SCc4ccc(Cl)cc4)n32)C1` here?
A: inconclusive [inhibitor, partial curve]

Q: For `O=C(CCn1c(=O)[nH]c2ccsc2c1=O)N1CCN(c2cccc(Cl)c2)CC1`, which Potency is on record?
A: inconclusive [inhibitor, single point]

Q: Which Potency does the source give for `CCSc1nc2ccccc2c(=O)n1-c1c(C)n(C)n(-c2ccccc2)c1=O` here?
A: inconclusive [inhibitor, single point]

Q: With `NNc1nc(-c2ccccc2)cc(-c2ccccc2)n1` as the compound, how does the Potency read?
A: inconclusive [inhibitor, single point]

Q: Which activity change, negative = growth inhibition does the source give for `COc1ccc(N(C(=O)c2cccc([N+](=O)[O-])c2)S(=O)(=O)c2cccs2)cc1` here?
A: inconclusive: -34.9% [inhibitor]

Q: With `Cc1ccc2[nH]c(=O)c3cc(C(=O)N(C)c4ccc(Br)cc4)sc3c2c1` as the compound, how does the Potency read?
A: active: 3.26 µM

Q: Which Potency does the source give for `OC(CN1CCN(c2ncc(C(F)(F)F)cc2Cl)CC1)c1ccccc1` (stereo not given) here?
A: inconclusive [inhibitor, single point]

Q: For `O=C(Nc1ccccc1)c1ccc(-c2ccc(Br)cc2)o1`, which Potency is on record?
A: inconclusive [inhibitor, partial curve]

Q: Which Potency does the source give for `Cc1nnc(NC(=O)CSc2nc3c([nH]c4ccccc43)c(=O)n2-c2ccc(Cl)cc2)s1` here?
A: inconclusive [inhibitor, partial curve]

Q: With `NNC(=O)Cc1cc(=O)[nH][nH]1` as the compound, how does the Potency read?
A: inconclusive [inhibitor, full curve, poor fit]

Q: Which Potency does the source give for `CCCN(CC1CC1)C(=S)Nc1ccccc1F` here?
A: inactive

Q: Which Potency does the source give for `CC(C(=O)NC1CCCC1)N(Cc1ccco1)C(=O)c1snc(C(=O)NC2CCCC2)c1N` (stereo not given) here?
A: inconclusive [inhibitor, single point]

Q: With `CCCCC[C@H](C)N1C[C@H](COCc2ccccc2)Oc2cc(N3CCC[C@H]3CO)ccc2S1(=O)=O` as the compound, how does the Potency read?
A: active: 20.6 µM

Q: With `Cc1cccc(NC(=S)NCCC(C)C)c1` as the compound, how does the Potency read?
A: inconclusive [inhibitor, partial curve]

Q: For `CCN(CC)CCCNC(=O)c1ccc2c(=O)n(Cc3ccc4c(c3)OCO4)c(=S)[nH]c2c1`, which Potency is on record?
A: inconclusive [inhibitor, single point]

Q: With `CCN(CC)S(=O)(=O)c1ccc(NC2c3ccccc3C(=O)N2Cc2ccc3c(c2)OCO3)cc1` (stereo not given) as the compound, how does the Potency read?
A: inconclusive [inhibitor, single point]

Q: With `COc1ccc(-c2noc3c2-c2nc(-c4ccccc4Cl)sc2CC3)cc1` as the compound, how does the Potency read?
A: inconclusive [inhibitor, single point]

Q: With `O=C1C=C(c2cccc3c2oc2ccccc23)C[C@@H](c2ccc(F)cc2)C1` as the compound, how does the Potency read?
A: inconclusive [inhibitor, single point]

Q: With `Cc1cc(C)cc(NC(=O)c2cc(S(=O)(=O)NCCC3=CCCCC3)ccc2F)c1` as the compound, how does the Potency read?
A: inconclusive [inhibitor, single point]

Q: For `CC(=O)N1CCc2cc(S(=O)(=O)NC(C(=O)NC3CCCc4ccccc43)C(C)C)ccc21` (stereo not given), which Potency is on record?
A: inconclusive [inhibitor, partial curve]

Q: With `C[C@@H]1CCCCO[C@H](CN(C)C(=O)Nc2ccc3c(c2)OCO3)[C@H](C)CN([C@@H](C)CO)C(=O)c2cc(NS(=O)(=O)c3ccc(Cl)cc3)ccc2O1` as the compound, how does the Potency read?
A: active: 16.4 µM

Q: Which Potency does the source give for `CC(=O)Nc1cc(C(=O)NCc2ccccc2Cl)ccc1Sc1ccc(F)cc1` here?
A: inconclusive [inhibitor, single point]

Q: With `CN(CC(=O)Nc1ccccc1N1CCOCC1)S(=O)(=O)c1ccc(Cl)cc1` as the compound, how does the Potency read?
A: inconclusive [inhibitor, single point]

Q: With `Cc1ccccc1/C=N/NC(=O)c1sccc1C` as the compound, how does the Potency read?
A: inconclusive [inhibitor, single point]

Q: For `CSCCC(NC(=O)C1CCC(C)CC1)C(=O)NCCN1CCC(C)CC1` (stereo not given), which Potency is on record?
A: inactive

Q: Which Potency does the source give for `Cc1ccc(S(=O)(=O)Nc2cccc(C(=O)N3CCCC3)c2)cc1F` here?
A: inactive

Q: For `Cc1cccc(N2CCN(c3ccc4cc(S(=O)(=O)N5CCCCC5)ccc4n3)CC2)c1C`, which Potency is on record?
A: active: 11.6 µM

Q: With `Cc1cccc(C(=O)Nc2ccc3oc(-c4cccc5c(Br)cccc45)nc3c2)c1` as the compound, how does the Potency read?
A: inconclusive [inhibitor, single point]

Q: For `COc1ccc(Cl)cc1NC(=O)CN1CCCCCC1`, which Potency is on record?
A: inactive

Q: With `CCOc1cccc2cc(C(=O)NC(C)c3ccccc3)c(=N)oc12` (stereo not given) as the compound, how does the Potency read?
A: active: 25.9 µM

Q: For `COc1ccc(C2=CC(=O)CC(C)(C)C2)cc1OC`, which Potency is on record?
A: inactive

Q: With `Cc1cc(C(=O)CSc2nnnn2-c2ccccc2)c(C)n1CCc1ccccc1` as the compound, how does the Potency read?
A: inconclusive [inhibitor, single point]

Q: For `CCCCC1C(=O)CC[C@H]2[C@@H]1CC(=O)[C@@H]2C/C=C\CCCC(=O)O` (stereo not given in full), which Potency is on record?
A: active: 20.6 µM

Q: Which Potency does the source give for `O=C(COC(=O)CSc1ccc([N+](=O)[O-])cc1)NCCCc1ccccc1` here?
A: inconclusive [inhibitor, single point]

Q: For `C/C=C(\C)C(=O)Nc1cccc(C2=NOC3(C2)C[C@H](C(N)=O)N(C(=O)C(c2ccccc2)c2ccccc2)C3)c1` (stereo not given in full), which Potency is on record?
A: inconclusive [inhibitor, single point]

Q: For `Cc1cc(C)n2c(SCC(=O)Nc3ccccc3)nnc2n1`, which Potency is on record?
A: inactive

Q: For `COC(=O)Cn1c2c(c3cc(C)ccc31)CCCC2`, which Potency is on record?
A: inactive

Q: With `CSc1c(CC(=O)Nc2ccccc2C(F)(F)F)n(Cc2ccccc2)c2ccccc12` as the compound, how does the Potency read?
A: inconclusive [inhibitor, single point]

Q: With `CC(=O)Nc1ccc2nc(NC(=O)COc3ccccc3Cl)sc2c1` as the compound, how does the Potency read?
A: inactive

Q: With `COc1ccc(N2CCN(C(c3cccs3)C(C)NS(=O)(=O)c3ccccc3)CC2)cc1` (stereo not given) as the compound, how does the Potency read?
A: active: 13 µM

Source: PubChem BioAssay AID686978 (National Center for Advancing Translational Sciences (NCATS), 2013)
